Test results as given in PubChem BioAssay AID894 (National Center for Advancing Translational Sciences (NCATS), 2007).
In all, about 150,000 compounds went through this assay and about 6,500 (4.3%) were called active. Inconclusive results, whose numbers are uncertain, are shown with a selection of clear calls. Calls come from the whole dose curve; as a rule, active = well fitted inhibition curve with a large enough effect (not every such curve was filed as active); inconclusive = small, poorly fitted or top-dose-only effect, or another doubt; inactive = no such curve, though single readings can be large or run the other way. No potency is given beside an inconclusive call; the fits are too rough.

Molecular target: 15-hydroxyprostaglandin dehydrogenase [NAD(+)] (Homo sapiens) (UniProt P15428)
Sequence of UniProt P15428 (P15428 whole entry, looked up): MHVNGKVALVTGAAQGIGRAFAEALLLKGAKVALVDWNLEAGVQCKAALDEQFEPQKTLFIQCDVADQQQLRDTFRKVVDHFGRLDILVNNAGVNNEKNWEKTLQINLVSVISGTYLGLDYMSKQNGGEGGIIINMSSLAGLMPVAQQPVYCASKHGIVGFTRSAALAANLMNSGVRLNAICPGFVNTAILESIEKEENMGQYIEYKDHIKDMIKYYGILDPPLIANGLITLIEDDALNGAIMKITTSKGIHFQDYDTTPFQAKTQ
Assay: qHTS Assay for Inhibitors of HPGD (15-Hydroxyprostaglandin Dehydrogenase)
Details: purified HPGD, NADH fluorescence kinetic, PGE2 substrate; activity change, negative = inhibition: hits give low values
Summary of the method: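 NADH formation kinetics: reaction with 30 uM PGE2 and 1 mM NAD+ (final), 20 nM enzyme, Tris-HCl pH 8 with Tween 20, after 15 min compound preincubation at room temperature. Fluorescence change, last versus first of five reads.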
% is set by controls: 0 for no effect and ±100 for the full control effect; potency is the fitted concentration of half-maximal effect; tags give direction and shape of the fitted curve.

Structure (SMILES)	Potency	activity change, negative = inhibition
C/C(=N\NC(=O)c1cccc(Cl)c1)C1C(=O)c2ccccc2C1=O	inconclusive [inhibitor, partial curve, poor fit]	
CCOC(=O)c1c(-c2cccs2)csc1NC(=O)c1ccncc1	inconclusive [inhibitor, partial curve]	
Cc1nc2ccc(NC(=O)N3CCC(c4ccccc4)C3)cc2nc1C (configuration not stated)	inconclusive [inhibitor, partial curve]	
O=C(Nc1ccc(-c2nc3c(ccc4ccccc43)o2)cc1)c1ccco1	inconclusive [inhibitor, partial curve]	
N#C/C(=C/c1ccc(Sc2nc3ccccc3[nH]2)o1)c1ccccc1F	inconclusive [inhibitor, single point]	
CCn1nnnc1SCC(=O)Nc1ccc2c(c1)OCO2		inactive: 3.19%
N#CCCn1c(SCC(=O)NCC2CCCO2)nc2ccccc21 (configuration not stated)	inconclusive [inhibitor, single point]	
CCC(C)(C)C1CCC(=NNC(=O)c2ccoc2C)CC1 (configuration not stated)		inactive: -22.6%
COc1ccc(-c2nc3ccccc3n2Cc2ccccc2)cc1	inconclusive [inhibitor, partial curve]	
O=C(Nc1nc(-c2ccc(Oc3ccccc3)cc2)cs1)C1=COCCO1	inconclusive [inhibitor, partial curve]	
Cc1ccc2nc3c(cc(C#N)c(=N)n3CC3CCCO3)c(=O)n2c1 (configuration not stated)	inconclusive [inhibitor, partial curve]	
Cc1ccc(-c2noc(C3CCCN(C(=O)c4ccccc4)C3)n2)o1 (configuration not stated)		inactive: 0.0735%
O=C(c1ccc2c(c1)OCO2)N1CCCC1	inconclusive [inhibitor, partial curve]	
O=C(NCCN1CCOCC1)c1ccc(-c2ccccc2)cc1	inconclusive [inhibitor, single point]	
COc1ccc(-c2[nH]c(-c3ccc(Cl)cc3)nc2SCC(=O)Nc2nccs2)cc1		inactive: -26.6%
Cc1ccccc1NC(=O)c1cc(C(=O)c2cc(Cl)ccc2O)cn(-c2ccccc2C)c1=O	active: 10 µM	
O=C1CCNc2cc3ccccc3cc21	inconclusive [inhibitor, partial curve]	
Cc1ccccc1CNC(=O)c1ccccc1C	inconclusive [inhibitor, partial curve]	
Cn1c(CN2CCOCC2)c(C#N)c2ccccc21	inconclusive [inhibitor, single point]	
CCOC(=O)CCCNC(=O)c1cncc(O)c1	inconclusive [inhibitor, partial curve]	
CC(N=Cc1cccc(O)c1O)c1ccccc1 (configuration not stated)	active: 2.82 µM	
O=C(Cc1nc(-c2ccc(Br)s2)cs1)NCCN1CCOCC1		inactive: -14.7%
CN(C)C(=O)CSc1cccc2cccnc12	inconclusive [inhibitor, partial curve]	
CC(C)CNC(=S)N(Cc1ccco1)Cc1cc2cc3c(cc2[nH]c1=O)OCCO3	inconclusive [inhibitor, partial curve]	

Structure (SMILES)	Potency	activity change, negative = inhibition
C1=C(c2ccccc2)CCN(c2nc3ccccc3n3cnnc23)C1	active: 14.1 µM	
O=C(Nc1nc(-c2ccc3c(c2)OCO3)cs1)c1ccncc1		inactive: -1.69%
COC(=O)c1sc2nc(-c3ccccc3)nc(N3CCN(C)CC3)c2c1C	inconclusive [inhibitor, partial curve]	
Cc1cc(S(=O)(=O)Nc2ccc3ccccc3c2)c(C)s1	inconclusive [inhibitor, single point]	
CC1=NNC(=O)/C1=C\c1cn(-c2ccccc2)nc1-c1ccc(Cl)cc1		inactive: -10.9%
O=[N+]([O-])c1cc(Oc2cccnc2)cc([N+](=O)[O-])c1		inactive: -9.54%
N#C/C(=C\c1ccco1)Sc1nc2ccccc2s1	active: 10 µM	
CC(=O)Oc1c(S(=O)(=O)c2ccc(C)cc2)c(C)nn1-c1ccccc1	inconclusive [inhibitor, single point]	
CSc1ccccc1NC(=O)CN(C)CC(=O)Nc1cc(C)ccc1C		inactive: -7.3%
C=C(C(C)=O)C(O)c1ccccc1 (configuration not stated)	inconclusive [inhibitor, single point]	
CN(/N=C/c1ccc(O)cc1O)c1nc(-c2ccccc2)cc(-c2ccccc2)n1		inactive: -3.44%
CCCCC(=O)Nc1cccc(-c2nnc(-c3ccccc3)o2)c1	inconclusive [inhibitor, partial curve, poor fit]	
O=C(CSc1nc2c(c(C(F)(F)F)n1)CCc1ccccc1-2)NCc1ccccc1	inconclusive [inhibitor, full curve]	
Cc1nn(-c2ccccc2)c2sc(C(=O)NCCN3CCOCC3)cc12	inconclusive [inhibitor, partial curve]	
COc1ccc(-c2nnco2)cc1OC	inconclusive [inhibitor, partial curve]	
S=c1[nH]cc(-c2ccccc2)n1-c1ccccc1Cl	active: 17.8 µM	
Cc1cc(C)cc(N(CC(=O)Nc2ccccc2-c2ccccc2)S(=O)(=O)c2ccccc2)c1	active: 10 µM	
Cc1nc2[nH]c(=O)c3c(n2n1)NC1=C(C(=O)CC(C)(C)C1)C3c1ccccc1 (configuration not stated)	inconclusive [inhibitor, partial curve]	
Cc1ccc(-c2noc(CCC(=O)NCCN3CCOCC3)n2)cc1		inactive: -4.23%
CCC(=O)c1ccc(OCc2ccccc2)c(OC)c1	inconclusive [inhibitor, single point]	
Cc1ccc2cccc(SCC(=O)N3CCOCC3)c2n1	inconclusive [inhibitor, partial curve]	
Cc1cc(C)nc(-n2ncc3c2CC(c2ccccc2C)CC3=O)n1 (configuration not stated)	inconclusive [inhibitor, single point]	
Cc1nc(C(=O)Nc2cc(Cl)ccc2Cl)nn1-c1cc(OC(C)C)c(Cl)cc1Cl	inconclusive [inhibitor, single point]	
